# Data: PubChem BioAssay AID624418 (National Center for Advancing Translational Sciences (NCATS), 2012)
# The whole screen tested about 410,000 compounds, of which about 530 (0.13%) were called active. The shares of active, inactive and inconclusive entries below differ from those in the screen. Calls come from the whole dose curve; as a rule, active = well fitted inhibition curve with a large enough effect; inconclusive = small, poorly fitted or top-dose-only effect, or another doubt; inactive = no such curve, though single readings can be large or run the other way. Where the call is inconclusive, the potency comes from a doubtful curve fit.
# Experiment: qHTS of GLP-1 Receptor Inverse Agonists: Cytotox Screen
# Conditions: HEK293 cAMP-luciferase reporter cells, luminescence, 24 h; series mostly up to 38.3 µM
# In short: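 A 23 nL compound transfer followed 12 hours of cell culture at 37 deg C; exposure then lasted 24 hr. Luciferase assay detection reagent was dispensed and plates read for luminescence after a 12 min room-temperature wait.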
# Potency is the fitted concentration of half-maximal effect.
row,SMILES,Potency
1,Oc1c(/C=N/c2ccccn2)sc2ccccc12,inactive
2,Clc1ccc(OCc2cc(-c3ccccc3)no2)cc1Cl,inactive
3,CCCCn1c(=O)c2oc3ccccc3c2n(CC(=O)Nc2cccc(Cl)c2C)c1=O,inactive
4,Cc1nc(SCC(=O)CC(=O)OC(C)C)c(C#N)c(C)c1C,inactive
5,Cc1[nH][nH]c(=O)c1N=Nc1ccc(F)cc1,"inconclusive: 10 µM [inhibitor, partial curve, poor fit]"
6,CCN(C(=O)c1cc2cc3ccc(OC)cc3nc2o1)c1cccc(C)c1,"inconclusive: 12.6 µM [inhibitor, partial curve, poor fit]"
7,CCN(CC(=O)Nc1ccccc1-c1ccccc1)Cc1nc2ccccc2c(=O)[nH]1,"inconclusive: 5.62 µM [inhibitor, partial curve]"
8,O=C(N/N=C/c1cccs1)c1cnccn1,inactive
9,COc1ccc(N/N=C(\C=N\O)C(=O)c2ccc(OC)cc2)cc1,"inconclusive: 6.31 µM [inhibitor, partial curve, poor fit]"
10,CCCC(=O)NC(=S)Nc1c(C)cc(Br)cc1C,"inconclusive: 28.2 µM [inhibitor, single point]"
11,O=C(CCl)Nc1cc2[nH]c(=O)[nH]c2cc1Br,"inconclusive: 22.4 µM [inhibitor, single point]"
12,Cc1ccccc1CN1c2ccccc2S(=O)(=O)c2ccccc21,inactive
13,COc1ccccc1C(C[N+](=O)[O-])c1c(N)n(C)c(=O)n(C)c1=O (stereo not given),"inconclusive: 11.2 µM [inhibitor, partial curve]"
14,COc1cccc(-c2nc(NC(C)C)c3ccccc3n2)c1O,"inconclusive: 12.6 µM [inhibitor, single point]"
15,COCCn1nnnc1C(c1ccccc1OC)N1CCc2ccccc2C1 (stereo not given),"inconclusive: 28.2 µM [inhibitor, single point]"
16,CCCCCCCC1CC(CSC(=N)N)OC1=O (stereo not given),"inconclusive: 28.2 µM [inhibitor, single point]"
17,COc1ccc(C(C(=O)NC2CCCCC2)N(C(=O)CCCC(=O)Nc2ccccn2)c2ccc3c(c2)OCCO3)cc1 (stereo not given),"inconclusive: 14.1 µM [inhibitor, single point]"
18,COc1ccc(N2CCN(C(CNC(=O)C(=O)NCCc3ccccc3)c3cccnc3)CC2)cc1 (stereo not given),inactive
19,CC1=NN(C(N)=S)C(=O)C1N=Nc1c(Cl)cc([N+](=O)[O-])cc1Cl (stereo not given),"inconclusive: 2.82 µM [inhibitor, partial curve]"
20,CC1CCN(C(=O)c2ccc3ccccc3c2)CC1,inactive
21,CC(C)CCN(C(=S)Nc1cccc(F)c1)C1CCN(C(C)C)CC1,"inconclusive: 28.2 µM [inhibitor, single point]"
22,COCCN(C(=O)CCl)C(C(=O)NC1CCCCC1)c1ccccc1C (stereo not given),"inconclusive: 12.6 µM [inhibitor, single point]"
23,c1ccc(C2CNCc3c2ccc2ccccc32)cc1 (stereo not given),"inconclusive: 28.2 µM [inhibitor, single point]"
24,COc1ccccc1-n1c(=O)[nH]c2c(C(N)=O)nc(-c3cccnc3)nc21,"inconclusive: 0.891 µM [inhibitor, full curve, poor fit]"

row,SMILES,Potency
1,CCn1c2ccccc2c2cc(/C=N/n3cnnc3)ccc21,"inconclusive: 31.6 µM [inhibitor, single point]"
2,CN(C)CCCN(C(=O)COc1ccccc1)c1nc2c(F)cccc2s1,inactive
3,Cc1cccc(Cn2c(=O)n(CC3CCC(C(=O)N4CCOCC4)CC3)c(=O)c3sccc32)c1 (stereo not given),inactive
4,COc1ccc(S(=O)(=O)N2CCOc3ccccc32)cc1,"inconclusive: 10 µM [inhibitor, partial curve]"
5,COc1ccc(C)cc1NC(=O)c1ccc(NS(=O)(=O)c2cccc3cccnc23)cc1,"inconclusive: 0.562 µM [inhibitor, full curve, poor fit]"
6,Cc1cc2c(NC3CCCCC3)ncnc2s1,inactive
7,C=CCN1c2ccccc2[C@]23C[C@@H](C(=O)OC)N(C(=O)c4cc(C)oc4C)C2=NC(C(=O)OC)=C(C(=O)OC)[C@H]13,"inconclusive: 2.82 µM [inhibitor, full curve, poor fit]"
8,COc1ccc(CSC(=S)NNc2ccccc2)cc1,"inconclusive: 8.91 µM [inhibitor, partial curve, poor fit]"
9,CCCN1CCN(C(=O)C2CCN(c3nnc(C)c4c(C)n(-c5ccc(C)cc5)nc34)CC2)CC1,"inconclusive: 8.91 µM [inhibitor, partial curve, poor fit]"
10,CCN(CC)CCN(Cc1cc2cc(C)ccc2[nH]c1=O)C(=S)NCc1ccco1,"inconclusive: 11.2 µM [inhibitor, single point]"
11,Cc1c(NC(=S)/C=C2\N(C)c3ccccc3C2(C)C)c(=O)n(-c2ccccc2)n1C,"inconclusive: 20 µM [inhibitor, partial curve, poor fit]"
12,CN(C)c1ccc(Nc2c3c4c(cccc4n(C)c2=O)C(=O)c2ccccc2-3)cc1,"inconclusive: 1.26 µM [inhibitor, partial curve, poor fit]"
13,CCN(CC(=O)Nc1ccc(OC)cc1)C(=O)CN1C(=O)NC(C)(c2ccc3ccccc3c2)C1=O (stereo not given),"inconclusive: 0.501 µM [inhibitor, full curve, poor fit]"
14,COc1cc(NC(=O)COc2ccc(Cl)cc2)ccc1-c1cc2ccccc2oc1=O,"inconclusive: 3.98 µM [inhibitor, full curve]"
15,CCOc1ccc(CCNC(=O)c2cnc3sc(N4CCC(C)CC4)nn3c2=O)cc1,inactive
16,CCC(C)N(C)Cc1cccc(C2(O)CCN(S(=O)(=O)c3ccc(F)c(C)c3)CC2)c1 (stereo not given),"inconclusive: 28.2 µM [inhibitor, single point]"
17,Oc1ccc(N=Nc2c(O)ccc3ccccc23)cc1,"inconclusive: 11.2 µM [inhibitor, single point]"
18,Cc1ccc(N(C(=O)C(F)(F)F)C(C(=O)NC2CCCCC2)c2cccs2)cc1C (stereo not given),"inconclusive: 28.2 µM [inhibitor, single point]"
19,CCOc1ccccc1NC(=O)N1CCc2cc(S(=O)(=O)N3CCC(C)CC3)ccc21,inactive
20,CCN(CC)C1CCN(C(=O)c2ccc(OC3CCN(CCc4ccccc4)CC3)cc2)C1 (stereo not given),"inconclusive: 1 µM [inhibitor, full curve, poor fit]"
21,COc1ccc2c(c1)C(=O)C1(CC2)OC1c1cccnc1 (stereo not given),inactive
22,O=C(CSc1nnnn1-c1cccc(O)c1)NC1CC1,inactive
23,COC(=O)c1cc(O)cc(OC)c1C(=O)c1c(O)cc(C)cc1O,inactive
24,CCCCc1nc(NCCNC(=O)c2ccccc2)c(C#N)c2c1CSC(C)(C)C2,"inconclusive: 31.6 µM [inhibitor, single point]"

row,SMILES,Potency
1,O=C(Nc1ccc(F)cc1F)c1cncc(Br)c1,inactive
2,Cc1cccc(C(=O)Nc2ccc(C(=O)Nc3ccc(O)cc3)cc2)c1,"inconclusive: 11.2 µM [inhibitor, partial curve, poor fit]"
3,Cn1nnnc1SCCCNCc1ccccc1OCc1ccccc1Cl,"inconclusive: 11.2 µM [inhibitor, single point]"
4,O=C(NCc1ccccn1)c1ccc(NS(=O)(=O)c2cccc(Cl)c2)cc1,inactive
5,COc1cc(Cl)c(C)cc1NC(=O)c1cc2c(Cl)nc3ccc(C)cc3c2s1,inactive
6,CCNC(=O)c1cnc2c(-c3ccccc3)c(C)nn2c1C,inactive
7,CC(=O)c1ccc(Nc2cc(C)nc3c(C)cc(C)cc23)cc1,"inconclusive: 14.1 µM [inhibitor, partial curve, poor fit]"
8,N#C/C(=N/Nc1ccc(S(=O)(=O)N2CCOCC2)cc1)C(N)=O,"inconclusive: 14.1 µM [inhibitor, single point]"
9,O=C(Nc1ncn[nH]1)c1cccc(F)c1,"inconclusive: 31.6 µM [inhibitor, partial curve, poor fit]"
10,Cc1cccc(-n2c(-c3csc(C)c3C)n[nH]c2=S)c1,inactive
11,CCc1cc2cccc(C)c2nc1SCC(=O)Nc1cc(C)on1,inactive
12,CCOC(=O)c1c(CSCc2ccccc2)oc2ccc(O)c(CN(C)C)c12,"inconclusive: 11.2 µM [inhibitor, single point]"
13,Cc1cccc(N2CC(C(=O)OCC(=O)c3ccc(OC(=O)c4cccs4)cc3)CC2=O)c1C (stereo not given),inactive
14,Cc1cccc(OCC(=O)Nc2ccccc2OCc2cc(=O)n3ccccc3n2)c1,inactive
15,CCOc1ccccc1CNC(=O)C1CCCN(c2ncnc3onc(-c4ccc(F)cc4)c23)C1 (stereo not given),inactive
16,O=C(c1ccc2c(c1)OCO2)N1CCN(c2cccc(C(F)(F)F)c2)CC1,"inconclusive: 25.1 µM [inhibitor, partial curve, poor fit]"
17,CN(CCCNC(=O)CSc1cc(=O)n(C)c2cc(Cl)ccc12)Cc1ccccc1,inactive
18,COC(=O)c1cc(NC(=O)CC2SC(=Nc3ccccc3)N(CCc3c[nH]c4ccccc34)C2=O)cc(C(=O)OC)c1 (stereo not given),"inconclusive: 12.6 µM [inhibitor, single point]"
19,CN1CCN(C2Cc3cc(Cl)ccc3Sc3cc(F)ccc32)CC1 (stereo not given),"inconclusive: 28.2 µM [inhibitor, single point]"
20,CC(=O)OCC(=O)Nc1ccc(N=Nc2ccccc2)cc1,"inconclusive: 28.2 µM [inhibitor, single point]"
21,COc1ccccc1C(=O)Nc1c(C(=O)N(C)Cc2ccccc2)sc2nc(C)c(Cl)c(C)c12,"inconclusive: 28.2 µM [inhibitor, single point]"
22,O=C(CSc1nnc(-c2ccc(O)cc2)o1)c1ccc(Br)cc1,inactive
